Laboratory results from PMC5700166.
The list shows a part of the results, in another mix than the full data. The list includes weakly bound sequences.

These sequences were tested against T1, GST-Ap-NF-kB RHD (UniProt A0A913YAJ5) (assay: protein-binding microarray (PBM)). Details: PBM: ~300 nM protein, 6 mM HEPES pH 7.8, 80 mM KCl, 0.5 mM EDTA, 0.5 mM EGTA, 6% glycerol, 35 ng/ul poly-dIdC, 1% milk, 1 h, room temperature; Ap Aiptasia and Nv Nematostella (sea anemones) / Co Capsaspora / Aq Amphimedon (sponge) / Dm Drosophila / Hu human; RHD is the Rel homology domain; high values mean tight binding; most listed sequences are background and not binding sites; double strand, one strand shown.
T1 sequence: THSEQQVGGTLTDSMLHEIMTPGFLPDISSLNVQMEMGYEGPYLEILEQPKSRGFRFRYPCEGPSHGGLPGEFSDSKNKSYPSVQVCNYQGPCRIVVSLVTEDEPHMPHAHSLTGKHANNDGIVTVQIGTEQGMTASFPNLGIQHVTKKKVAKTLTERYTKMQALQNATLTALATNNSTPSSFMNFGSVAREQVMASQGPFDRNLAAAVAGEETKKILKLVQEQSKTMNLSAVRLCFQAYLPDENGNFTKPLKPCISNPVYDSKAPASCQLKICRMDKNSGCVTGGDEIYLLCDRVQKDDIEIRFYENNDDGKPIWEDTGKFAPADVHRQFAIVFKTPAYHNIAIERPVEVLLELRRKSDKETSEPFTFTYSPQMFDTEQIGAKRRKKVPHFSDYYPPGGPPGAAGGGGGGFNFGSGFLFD

“CCGATTAACATCACGATAGCTATTGATGTTAATCGGGTCTTGATTCGCTTGACGCTGCTG” was tested. Which binding signal did it give?
Its binding signal is -0.483 z-score.

How did the binding signal turn out when “CCGATTAACATCACGTACTACAATGATGTTAATCGGGTCTTGATTCGCTTGACGCTGCTG” was run?
Its binding signal is -0.126 z-score.

Which binding signal does the source give for “CCGATTAACATCAGATTCTCGTGTGATGTTAATCGGGTCTTGATTCGCTTGACGCTGCTG” here?
The binding signal was -0.39 z-score.

Which binding signal does the source give for “CCGATTAACATCAGAGCGGGTTTTGATGTTAATCGGGTCTTGATTCGCTTGACGCTGCTG” here?
Its binding signal is 0.94 z-score.

“CCGATTAACATCAAGTTGTACAATGATGTTAATCGGGTCTTGATTCGCTTGACGCTGCTG” was tested. Which binding signal did it give?
The binding signal was -0.665 z-score.

“CCGATTAACATCAGTTGCTCTCATGATGTTAATCGGGTCTTGATTCGCTTGACGCTGCTG” was tested. Which binding signal did it give?
Its binding signal is -0.232 z-score.

With “CCGATTAACATCAGAAAATTTCATGATGTTAATCGGGTCTTGATTCGCTTGACGCTGCTG” as the sequence, how does the binding signal read?
Its binding signal is -0.544 z-score.

Which binding signal does the source give for “CCGATTAACATCATTACGCCACGTGATGTTAATCGGGTCTTGATTCGCTTGACGCTGCTG” here?
The binding signal was -0.234 z-score.

How did the binding signal turn out when “CCGATTAACATCATACTCCTTGATGATGTTAATCGGGTCTTGATTCGCTTGACGCTGCTG” was run?
Its binding signal is -0.0989 z-score.

Which binding signal does the source give for “CCGATTAACATCATCTCGACCATTGATGTTAATCGGGTCTTGATTCGCTTGACGCTGCTG” here?
Its binding signal is -0.0441 z-score.

For “CCGATTAACATCAAAATTCCTACTGATGTTAATCGGGTCTTGATTCGCTTGACGCTGCTG”, which binding signal is on record?
Its binding signal is 0.219 z-score.

Which binding signal does the source give for “CCGATTAACATCAGCGCAGCGGCTGATGTTAATCGGGTCTTGATTCGCTTGACGCTGCTG” here?
Its binding signal is -0.687 z-score.

How did the binding signal turn out when “CCGATTAACATCATACTAGTTCCTGATGTTAATCGGGTCTTGATTCGCTTGACGCTGCTG” was run?
Its binding signal is 0.244 z-score.

Which binding signal does the source give for “CCGATTAACATCATTAAGAAAGCTGATGTTAATCGGGTCTTGATTCGCTTGACGCTGCTG” here?
Its binding signal is -0.11 z-score.

How did the binding signal turn out when “CCGATTAACATCAGGGTTGCAACTGATGTTAATCGGGTCTTGATTCGCTTGACGCTGCTG” was run?
The binding signal was -0.256 z-score.

How did the binding signal turn out when “CCGATTAACATCACCATCCAACTTGATGTTAATCGGGTCTTGATTCGCTTGACGCTGCTG” was run?
The binding signal was 0.0058 z-score.

Which binding signal does the source give for “CCGATTAACATCAAGCGGTATTATGATGTTAATCGGGTCTTGATTCGCTTGACGCTGCTG” here?
The binding signal was 0.536 z-score.

“CCGATTAACATCACGGGTCGGATTGATGTTAATCGGGTCTTGATTCGCTTGACGCTGCTG” was tested. Which binding signal did it give?
The binding signal was 0.0354 z-score.

“CCGATTAACATCACCTGAACTATTGATGTTAATCGGGTCTTGATTCGCTTGACGCTGCTG” was tested. Which binding signal did it give?
The binding signal was 0.435 z-score.

How did the binding signal turn out when “CCGATTAACATCAATTGACGATTTGATGTTAATCGGGTCTTGATTCGCTTGACGCTGCTG” was run?
The binding signal was -0.685 z-score.

Which binding signal does the source give for “CCGATTAACATCACGGATTCTCCTGATGTTAATCGGGTCTTGATTCGCTTGACGCTGCTG” here?
The binding signal was -0.126 z-score.

How did the binding signal turn out when “CCGATTAACATCAGCGAATTTCCTGATGTTAATCGGGTCTTGATTCGCTTGACGCTGCTG” was run?
The binding signal was -0.14 z-score.

How did the binding signal turn out when “CCGATTAACATCAAATAGGCTCATGATGTTAATCGGGTCTTGATTCGCTTGACGCTGCTG” was run?
The binding signal was -0.2 z-score.

How did the binding signal turn out when “CCGATTAACATCACATACCTACCTGATGTTAATCGGGTCTTGATTCGCTTGACGCTGCTG” was run?
Its binding signal is 0.892 z-score.

“CCGATTAACATCAATTCATCAGTTGATGTTAATCGGGTCTTGATTCGCTTGACGCTGCTG” was tested. Which binding signal did it give?
The binding signal was -0.85 z-score.

For “CCGATTAACATCAGCAACTGGCCTGATGTTAATCGGGTCTTGATTCGCTTGACGCTGCTG”, which binding signal is on record?
Its binding signal is -0.392 z-score.

For “CCGATTAACATCATCGCGCCTTCTGATGTTAATCGGGTCTTGATTCGCTTGACGCTGCTG”, which binding signal is on record?
Its binding signal is 0.764 z-score.

With “CCGATTAACATCAAGACCACTGTTGATGTTAATCGGGTCTTGATTCGCTTGACGCTGCTG” as the sequence, how does the binding signal read?
Its binding signal is -0.479 z-score.

Which binding signal does the source give for “CCGATTAACATCAAGGCAAAGGCTGATGTTAATCGGGTCTTGATTCGCTTGACGCTGCTG” here?
Its binding signal is -0.594 z-score.

Which binding signal does the source give for “CCGATTAACATCAGCCATGGTGATGATGTTAATCGGGTCTTGATTCGCTTGACGCTGCTG” here?
The binding signal was 0.235 z-score.

With “CCGATTAACATCAGCTAAGCATGTGATGTTAATCGGGTCTTGATTCGCTTGACGCTGCTG” as the sequence, how does the binding signal read?
Its binding signal is -0.941 z-score.

How did the binding signal turn out when “CCGATTAACATCAAAAAATCCCCTGATGTTAATCGGGTCTTGATTCGCTTGACGCTGCTG” was run?
The binding signal was 11.7 z-score.

“CCGATTAACATCACGTAACAATATGATGTTAATCGGGTCTTGATTCGCTTGACGCTGCTG” was tested. Which binding signal did it give?
The binding signal was 0.0576 z-score.

With “CCGATTAACATCACAGAAATTCCTGATGTTAATCGGGTCTTGATTCGCTTGACGCTGCTG” as the sequence, how does the binding signal read?
The binding signal was 0.342 z-score.

With “CCGATTAACATCACGCGATCATATGATGTTAATCGGGTCTTGATTCGCTTGACGCTGCTG” as the sequence, how does the binding signal read?
The binding signal was -0.0123 z-score.

Which binding signal does the source give for “CCGATTAACATCACGGGCATTCCTGATGTTAATCGGGTCTTGATTCGCTTGACGCTGCTG” here?
Its binding signal is 0.931 z-score.

How did the binding signal turn out when “CCGATTAACATCATGCAAGAACTTGATGTTAATCGGGTCTTGATTCGCTTGACGCTGCTG” was run?
Its binding signal is -0.825 z-score.

Which binding signal does the source give for “CCGATTAACATCAGCTCTGTACATGATGTTAATCGGGTCTTGATTCGCTTGACGCTGCTG” here?
The binding signal was -0.371 z-score.

With “CCGATTAACATCAGTTCACGCCGTGATGTTAATCGGGTCTTGATTCGCTTGACGCTGCTG” as the sequence, how does the binding signal read?
Its binding signal is -0.0827 z-score.
